Drawing on a collection of fitness landscapes (doi:10.1038/s41467-024-54723-y), this text covers TetR repression strength for 102 sequences.

Whole data set: some 18,000 sequences, median “TetR repression strength (sort-seq, GFP reporter)” near 0.23, cut for the highest 2% near 0.68. This is one part of the list.

Chain of UniProt P04483 (P04483 whole entry): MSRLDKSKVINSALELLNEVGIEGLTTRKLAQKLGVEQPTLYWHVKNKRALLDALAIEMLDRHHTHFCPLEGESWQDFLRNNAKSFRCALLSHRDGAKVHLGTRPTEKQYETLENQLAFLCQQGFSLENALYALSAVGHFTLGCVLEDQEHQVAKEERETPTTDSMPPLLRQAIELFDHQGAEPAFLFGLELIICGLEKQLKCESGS

For the assay, the target named is TetR (class B, Tn10) (UniProt P04483). Kind of assay: TetR repression strength (sort-seq, GFP reporter) (relative to tetO2 = 1); higher = stronger repression. As to conditions: E. coli. The method, boiled down:
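Repression strength was calculated by subtracting the read-weighted mean bin from the top bin index plus one and dividing by the unaltered operator's value. The plasmid library was low-copy in E. coli SIG10-MAX, with eight randomized operator positions between a constitutive promoter and sfGFP and constitutive TetR. Cultures grew 5 h at 37 °C in LB containing 50 µg/mL chloramphenicol before 10^6 cells were sorted by FACS into 13 fluorescence bins, each sequenced on Illumina. Three independent transformations were averaged for members having ≥30 reads in all replicates and a CV ≤0.5.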
As for TCCCTTATAGTATGGGAGA, the TetR repression strength came to 0.0726.
The sequence TCCCGGGAAGTCAGCGAGA gave a TetR repression strength of 0.261.
Consider TCCCGCTGAGTGGGGGAGA, for which the TetR repression strength came out at 0.484.
TCCCTTCAAGTGCGTGAGA: the TetR repression strength was 0.202.
Take TCCCGAGTAGTTGCAGAGA: the TetR repression strength came to 0.389.
For TCCCGCCTAGTGGGCGAGA, the TetR repression strength came to 0.131.
With TCCCACCAAGTGTCAGAGA the figure was 0.326; with TCCCTGGGAGTTTGCGAGA, 0.187; with TCCCTAGCAGTTATTGAGA, 0.476.
The sequence TCCCTAGCAGTCTGCGAGA gave a TetR repression strength of 0.223.
The sequence TCCCTCTGAGTTTGGGAGA returned a TetR repression strength of 0.0119.
With TCCCCAGCAGTGCTTGAGA the figure was 0.311; with TCCCTATAAGTGAGTGAGA, 0.693; with TCCCGCGAAGTATGAGAGA, 0.4.
With TCCCAAACAGTCTGAGAGA, the TetR repression strength was determined as 0.58.
The figure for TCCCTAAGAGTAATCGAGA is 0.183; for TCCCAGCCAGTCCTGGAGA it is 0.634; for TCCCTTTAAGTTCGAGAGA it is 0.0484.
Turning to TCCCTCGCAGTGTCAGAGA, the TetR repression strength turned out to be 0.181.
Turning to TCCCGCCAAGTCCGTGAGA, the TetR repression strength was 0.625.
TCCCTGTAAGTAAAGGAGA: the TetR repression strength was 0.286.
TCCCATACAGTATAGGAGA yielded a TetR repression strength of 0.297.
With TCCCATGGAGTACGTGAGA the figure was 0.189; with TCCCGGTTAGTTTTTGAGA, 0.158.
On to TCCCTATCAGTGCGCGAGA, for which the TetR repression strength stood at 0.487.
In turn, TCCCTCTGAGTCGAGGAGA had a TetR repression strength of 0.282.
The figure for TCCCTTGCAGTTGGGGAGA is 0.275.
Turning to TCCCCAGAAGTCGTTGAGA, the TetR repression strength stood at 0.061.
In turn, TCCCAAGTAGTTTTCGAGA returned a TetR repression strength of 0.224.
TCCCAGCAAGTGATTGAGA had a TetR repression strength of 0.201.
TCCCAGATAGTGATAGAGA: the TetR repression strength was 0.472.
On to TCCCTGGCAGTGCGAGAGA, for which the TetR repression strength is 0.143.
Sequence TCCCTGAAAGTTCTGGAGA registered a TetR repression strength of 0.158.
On to TCCCATCGAGTTGACGAGA, for which the TetR repression strength was 0.25.
TCCCTATCAGTGACTGAGA came in with a TetR repression strength of 0.722.
Sequence TCCCATACAGTTCATGAGA gave a TetR repression strength of 0.194.
TCCCGGGCAGTGTACGAGA: the TetR repression strength was 0.406.
Turning to TCCCTATCAGTAGTCGAGA, the TetR repression strength worked out at 0.537.
TCCCTGTTAGTTTGTGAGA returned a TetR repression strength of 0.4.
With TCCCGTCCAGTTTGAGAGA, the TetR repression strength was determined as 0.227.
The figure for TCCCATAGAGTGTGAGAGA is 0.216; for TCCCTATTAGTGTCAGAGA it is 0.194; for TCCCTTTTAGTTAGCGAGA it is 0.48.
TCCCGCGGAGTGGGGGAGA gave a TetR repression strength of 0.229.
In turn, TCCCGATAAGTGGGGGAGA had a TetR repression strength of 0.152.
Turning to TCCCAATAAGTCCAGGAGA, the TetR repression strength stood at 0.278.
As to TCCCTATTAGTGTAGGAGA, the TetR repression strength turned out to be 0.0563.
For TCCCCCTCAGTGGGGGAGA, the TetR repression strength was determined as 0.144.
TCCCCTCGAGTGCATGAGA gave a TetR repression strength of 0.334.
In turn, TCCCTGGGAGTGTCGGAGA registered a TetR repression strength of 0.17.
TCCCGATAAGTTGCTGAGA gave a TetR repression strength of 0.22.
The sequence TCCCCATTAGTTCCGGAGA displayed a TetR repression strength of 0.569.
Consider TCCCATCGAGTTCATGAGA, for which the TetR repression strength was 0.17.
For TCCCGCAAAGTTGGGGAGA, the TetR repression strength turned out to be 0.42.
With TCCCTTTCAGTAATAGAGA the figure was 0.745.
The sequence TCCCGGGCAGTATTCGAGA yielded a TetR repression strength of 0.136.
Take TCCCTATCAGTTTGGGAGA: the TetR repression strength was 0.329.
For TCCCTGTGAGTTCGAGAGA, the TetR repression strength was determined as 0.719.
In turn, TCCCAGGGAGTACTTGAGA had a TetR repression strength of 0.234.
With TCCCGGTCAGTCGGAGAGA, the TetR repression strength is 0.277.
The sequence TCCCGAACAGTGAAGGAGA had a TetR repression strength of 0.223.
TCCCGCGGAGTTCGTGAGA registered a TetR repression strength of 0.227.
The sequence TCCCGCCCAGTTGGTGAGA displayed a TetR repression strength of 0.401.
In turn, TCCCAGTAAGTATATGAGA showed a TetR repression strength of 0.289.
Sequence TCCCGTTGAGTGTGAGAGA returned a TetR repression strength of 0.361.
Take TCCCTGTAAGTTCTAGAGA: the TetR repression strength came out at 0.329.
The figure for TCCCAGTTAGTATTCGAGA is 0.341.
Sequence TCCCCTGAAGTGGGGGAGA showed a TetR repression strength of 0.182.
TCCCGATCAGTGACTGAGA: the TetR repression strength was determined as 0.427.
For the sequence TCCCCGTAAGTCTATGAGA, the TetR repression strength was 0.331.
Sequence TCCCTTATAGTAGGAGAGA displayed a TetR repression strength of 0.339.
TCCCTATAAGTCAGGGAGA gave a TetR repression strength of 0.324.
Sequence TCCCAGACAGTCAAGGAGA had a TetR repression strength of 0.337.
For TCCCATTTAGTTGTCGAGA, the TetR repression strength was found to be 0.162.
With TCCCTTTCAGTGCGGGAGA the figure was 0.234; with TCCCGGCGAGTTGGGGAGA, 0.0799.
Sequence TCCCTATTAGTCTCAGAGA returned a TetR repression strength of 0.132.
The figure for TCCCTGTGAGTTGTTGAGA is 0.109; for TCCCGATCAGTGCCCGAGA it is 0.438; for TCCCAGGTAGTTGTTGAGA it is 0.0622.
On to TCCCACTCAGTTACAGAGA, for which the TetR repression strength was found to be 0.358.
TCCCCGTAAGTGCCGGAGA displayed a TetR repression strength of 0.
The figure for TCCCACGTAGTTTCCGAGA is 0.213; for TCCCGATGAGTCATAGAGA it is 0.0429; for TCCCCAACAGTGGATGAGA it is 0.251.
On to TCCCTATCAGTTCCTGAGA, for which the TetR repression strength worked out at 0.76.
Turning to TCCCGGGCAGTGATAGAGA, the TetR repression strength was determined as 0.571.
With TCCCGTGGAGTGAGGGAGA the figure was 0.225.
TCCCGTCCAGTACATGAGA: the TetR repression strength amounted to 0.104.
The figure for TCCCTGGTAGTGGGGGAGA is 0.208; for TCCCTTCGAGTGCTAGAGA it is 0.37.
In the case of TCCCGACTAGTCAAAGAGA, the TetR repression strength turned out to be 0.421.
The figure for TCCCTTAAAGTGGGAGAGA is 0.0433; for TCCCTGATAGTATTCGAGA it is 0.0766; for TCCCTTCGAGTGAACGAGA it is 0.445.
TCCCGAGTAGTCGGTGAGA: the TetR repression strength came to 0.279.
Take TCCCTAGGAGTAGTGGAGA: the TetR repression strength came out at 0.176.
With TCCCAGCGAGTCGAGGAGA the figure was 0.173.
Turning to TCCCTTGTAGTTGGCGAGA, the TetR repression strength amounted to 0.186.
For the sequence TCCCGGGCAGTTGGTGAGA, the TetR repression strength was 0.397.
The figure for TCCCGTTAAGTAGTTGAGA is 0.135; for TCCCATTCAGTTACTGAGA it is 0.319.
